PubChem BioAssay AID588342 (National Center for Advancing Translational Sciences (NCATS), 2011)
In all, about 360,000 compounds went through this assay and about 25,000 (6.9%) were called active. The shares of active, inactive and inconclusive entries below differ from those in the screen. Calls come from the whole dose curve; as a rule, active = well fitted inhibition curve with a large enough effect; inconclusive = small, poorly fitted or top-dose-only effect; inactive = flat fitted curve, though single readings scatter. A potency beside an inconclusive call is a rough fit, not a confirmed value.

Biological target: Luciferin 4-monooxygenase (Photinus pyralis) (UniProt P08659)
Sequence of UniProt P08659 (P08659 whole entry, looked up): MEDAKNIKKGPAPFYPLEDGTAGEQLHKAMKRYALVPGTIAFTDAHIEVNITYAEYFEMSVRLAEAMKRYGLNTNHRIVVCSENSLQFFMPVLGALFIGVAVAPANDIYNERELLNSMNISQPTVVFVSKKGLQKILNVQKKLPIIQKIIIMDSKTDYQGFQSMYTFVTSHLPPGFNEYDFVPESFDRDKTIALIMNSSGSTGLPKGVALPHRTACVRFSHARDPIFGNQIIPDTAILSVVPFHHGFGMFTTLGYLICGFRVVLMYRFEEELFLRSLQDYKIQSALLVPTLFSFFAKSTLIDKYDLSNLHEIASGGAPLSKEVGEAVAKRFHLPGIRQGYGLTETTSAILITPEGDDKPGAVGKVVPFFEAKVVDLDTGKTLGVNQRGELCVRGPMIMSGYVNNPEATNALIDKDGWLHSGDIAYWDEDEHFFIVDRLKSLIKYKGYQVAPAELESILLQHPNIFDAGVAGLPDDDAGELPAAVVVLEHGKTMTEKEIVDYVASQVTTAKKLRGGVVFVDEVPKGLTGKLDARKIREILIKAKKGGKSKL
Test: qHTS profiling assay for firefly luciferase inhibitor/activator using purifed enzyme and Km concentrations of substrates (counterscreen for miR-21 project); note: nearly all actives have a fitted effect of over 55% in size
Conditions: purified FLuc, luminescence inhibition; series mostly up to 57.5 µM
Procedure, shortened: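 Purified P. pyralis luciferase, 10 nM final, with Km-level 10 uM D-luciferin and 10 uM ATP in 50 mM Tris acetate pH 7.5, 10 mM Mg acetate, 0.01% Tween-20, 0.05% BSA; 6-point qHTS titration about 60 µM downward; luminescence read.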
Potency is the fitted concentration of half-maximal effect; tags give direction and shape of the fitted curve.

Row | SMILES | Potency
1 | Cc1ccc(-c2csc(NC(=O)CN3CCC(C(N)=O)CC3)n2)cc1 | inconclusive: 12 µM [inhibitor, partial curve, poor fit]
2 | CCOc1ccc(-c2cc(CCCC(=O)Nc3cc(OC)ccc3OC)no2)cc1 | active: 6.01 µM
3 | CCOc1ccc2[nH]c(=O)c(C(c3nnnn3Cc3ccco3)N3CCN(C)CC3)cc2c1 (configuration not stated) | inactive
4 | Cc1ccccc1C(=O)Nc1cccc(-c2ccc3nncn3n2)c1 | inactive
5 | OCCN1CCN(C(c2cccs2)c2ccc3cccnc3c2O)CC1 (configuration not stated) | inconclusive: 12 µM [inhibitor, single point]
6 | COc1cccc(-n2c(C)cc(/C=C3/C(=N)N4C(=NC3=O)SN=C4S(C)(=O)=O)c2C)c1 | active: 5.36 µM
7 | O=C(Nc1ccc(Br)cc1Cl)NC1CC1 | inactive
8 | O=C(NCc1ccccc1)c1ccc(CNS(=O)(=O)c2ccc(Br)cc2)cc1 | inactive
9 | COc1ccc(/C=N/NC(=O)c2cnccn2)cc1O | active: 12 µM
10 | COc1cc(/C=N/N=C(N)N)ccc1OCc1ccccc1Cl | inconclusive: 30.1 µM [inhibitor, single point]
11 | Cc1cc(C)nc(N/N=C/c2ccccc2OCC(=O)O)n1 | inconclusive: 21.3 µM [inhibitor, single point]
12 | O=C(CSc1nccc(=O)[nH]1)Nc1ccccc1Sc1ccccc1 | inconclusive: 23.9 µM [inhibitor, single point]
13 | CC(=O)c1ccc(NS(=O)(=O)c2ccc3c(c2)N(C)CCO3)cc1 | inactive
14 | COc1ccc(CNc2ncc(-c3ccccc3)n2C)c2ccccc12 | inconclusive: 26.9 µM [inhibitor, partial curve, poor fit]
15 | COc1ccc(NC(=S)Nc2ccccc2OC)c(OC)c1 | inactive
16 | CCCCn1nc(C(=O)Nc2cc(C(F)(F)F)ccc2N2CCOCC2)ccc1=O | inactive
17 | Nc1nnc(SCCCC(=O)c2ccc(Br)cc2)s1 | inconclusive: 15.1 µM [inhibitor, partial curve]
18 | Cc1cc2oc(=O)cc(CN3CCC(C)CC3)c2cc1Cl | inconclusive: 21.3 µM [inhibitor, single point]
19 | CC(C)(C)c1ccc(/C=C/C(=O)c2ccc(NC3=NCCCS3)cc2)cc1 | active: 15.1 µM
20 | COc1ccc(/C=C/C(=O)NC(=S)NN2CCCCC2c2cccnc2)cc1 (configuration not stated) | inconclusive: 37.9 µM [inhibitor, partial curve, poor fit]
21 | Cc1ccc(NC(=O)Cc2ccc(-n3c(C)nc4cccnc43)cc2)c(Cl)c1 | inactive
22 | O=C(NC(=S)Nc1ccccn1)c1ccco1 | active: 21.3 µM
